In publication PMC12714564 one finds binding data, which are given here for ten substances.

Chains of the proteins cited; added tags and fusions are not shown. Lines headed by an entry give the natural chain unless they say otherwise; changes in a name come on top.
UniProt Q96L91: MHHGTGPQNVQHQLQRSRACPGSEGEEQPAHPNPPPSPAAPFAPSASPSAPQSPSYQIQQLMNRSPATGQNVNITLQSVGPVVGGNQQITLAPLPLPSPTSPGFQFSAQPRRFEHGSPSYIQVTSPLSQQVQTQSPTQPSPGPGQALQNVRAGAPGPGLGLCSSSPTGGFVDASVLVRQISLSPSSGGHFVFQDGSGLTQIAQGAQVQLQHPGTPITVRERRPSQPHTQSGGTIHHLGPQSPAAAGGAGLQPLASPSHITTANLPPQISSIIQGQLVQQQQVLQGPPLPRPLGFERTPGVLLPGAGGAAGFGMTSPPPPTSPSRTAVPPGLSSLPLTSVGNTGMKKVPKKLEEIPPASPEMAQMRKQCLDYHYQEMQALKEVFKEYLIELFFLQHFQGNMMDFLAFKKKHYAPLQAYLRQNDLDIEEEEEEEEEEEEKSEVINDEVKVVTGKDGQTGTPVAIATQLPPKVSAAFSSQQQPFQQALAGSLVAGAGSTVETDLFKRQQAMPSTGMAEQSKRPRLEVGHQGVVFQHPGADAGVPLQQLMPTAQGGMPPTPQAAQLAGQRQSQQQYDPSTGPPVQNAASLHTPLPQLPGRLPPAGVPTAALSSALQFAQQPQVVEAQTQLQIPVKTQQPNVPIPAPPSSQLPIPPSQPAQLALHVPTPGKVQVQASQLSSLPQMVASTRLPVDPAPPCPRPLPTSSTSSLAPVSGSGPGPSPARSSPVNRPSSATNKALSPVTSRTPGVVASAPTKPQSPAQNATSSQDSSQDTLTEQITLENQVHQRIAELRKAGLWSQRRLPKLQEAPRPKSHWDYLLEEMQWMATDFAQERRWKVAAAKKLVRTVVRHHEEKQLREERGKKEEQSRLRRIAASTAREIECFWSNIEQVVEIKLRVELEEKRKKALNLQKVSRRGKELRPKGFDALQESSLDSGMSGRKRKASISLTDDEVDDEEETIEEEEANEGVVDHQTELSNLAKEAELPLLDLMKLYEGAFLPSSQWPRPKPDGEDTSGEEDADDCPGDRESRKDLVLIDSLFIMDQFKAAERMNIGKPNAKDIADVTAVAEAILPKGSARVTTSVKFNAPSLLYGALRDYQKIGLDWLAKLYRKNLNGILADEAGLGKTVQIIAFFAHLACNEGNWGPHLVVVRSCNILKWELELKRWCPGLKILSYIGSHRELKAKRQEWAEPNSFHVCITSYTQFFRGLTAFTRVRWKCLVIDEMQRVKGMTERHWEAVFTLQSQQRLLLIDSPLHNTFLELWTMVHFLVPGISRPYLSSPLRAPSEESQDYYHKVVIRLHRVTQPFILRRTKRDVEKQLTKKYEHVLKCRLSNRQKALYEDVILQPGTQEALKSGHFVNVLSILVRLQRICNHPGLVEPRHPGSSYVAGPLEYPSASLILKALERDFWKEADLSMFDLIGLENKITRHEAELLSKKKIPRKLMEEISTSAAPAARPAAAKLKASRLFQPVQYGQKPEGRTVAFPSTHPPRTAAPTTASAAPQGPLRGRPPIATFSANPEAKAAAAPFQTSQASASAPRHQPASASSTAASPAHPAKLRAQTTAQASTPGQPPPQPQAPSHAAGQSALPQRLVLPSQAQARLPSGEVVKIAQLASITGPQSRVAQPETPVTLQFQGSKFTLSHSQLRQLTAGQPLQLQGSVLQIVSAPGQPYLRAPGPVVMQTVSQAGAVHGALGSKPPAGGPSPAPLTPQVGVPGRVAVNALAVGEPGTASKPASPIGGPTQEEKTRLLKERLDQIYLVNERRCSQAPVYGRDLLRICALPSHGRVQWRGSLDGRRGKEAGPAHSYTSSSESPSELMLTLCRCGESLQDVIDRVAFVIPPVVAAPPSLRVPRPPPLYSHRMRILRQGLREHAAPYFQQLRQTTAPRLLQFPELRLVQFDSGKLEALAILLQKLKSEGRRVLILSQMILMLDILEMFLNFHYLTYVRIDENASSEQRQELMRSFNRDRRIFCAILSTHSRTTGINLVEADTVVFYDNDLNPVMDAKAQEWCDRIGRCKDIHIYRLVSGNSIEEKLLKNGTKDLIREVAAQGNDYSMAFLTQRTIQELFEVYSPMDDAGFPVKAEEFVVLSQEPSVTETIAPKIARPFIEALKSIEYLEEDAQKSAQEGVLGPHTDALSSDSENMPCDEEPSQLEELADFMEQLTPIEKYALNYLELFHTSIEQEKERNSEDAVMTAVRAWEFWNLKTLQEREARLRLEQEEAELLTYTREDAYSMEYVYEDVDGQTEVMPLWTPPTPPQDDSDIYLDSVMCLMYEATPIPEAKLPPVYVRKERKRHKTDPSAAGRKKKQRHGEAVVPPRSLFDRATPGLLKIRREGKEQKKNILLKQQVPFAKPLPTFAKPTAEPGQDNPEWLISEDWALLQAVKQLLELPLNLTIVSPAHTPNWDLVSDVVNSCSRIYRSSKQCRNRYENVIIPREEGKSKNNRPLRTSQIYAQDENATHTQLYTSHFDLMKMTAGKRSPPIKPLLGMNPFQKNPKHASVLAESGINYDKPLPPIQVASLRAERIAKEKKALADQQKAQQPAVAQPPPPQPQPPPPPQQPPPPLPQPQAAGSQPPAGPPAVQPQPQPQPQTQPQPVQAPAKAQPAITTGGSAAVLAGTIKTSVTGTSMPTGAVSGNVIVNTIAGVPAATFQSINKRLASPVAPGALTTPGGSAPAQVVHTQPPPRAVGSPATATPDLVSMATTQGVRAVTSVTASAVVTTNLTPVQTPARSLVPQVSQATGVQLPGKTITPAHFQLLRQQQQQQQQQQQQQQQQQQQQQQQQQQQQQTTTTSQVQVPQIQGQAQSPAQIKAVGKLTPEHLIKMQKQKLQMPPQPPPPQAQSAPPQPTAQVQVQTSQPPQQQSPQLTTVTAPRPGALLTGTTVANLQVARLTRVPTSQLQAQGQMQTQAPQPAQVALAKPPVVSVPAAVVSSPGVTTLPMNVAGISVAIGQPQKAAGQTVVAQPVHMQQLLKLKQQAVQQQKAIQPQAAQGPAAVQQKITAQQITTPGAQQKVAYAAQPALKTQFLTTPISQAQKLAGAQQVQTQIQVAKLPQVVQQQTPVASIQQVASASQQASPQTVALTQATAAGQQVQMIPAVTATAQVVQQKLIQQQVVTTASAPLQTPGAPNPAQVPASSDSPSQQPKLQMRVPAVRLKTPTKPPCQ
UniProt P04608: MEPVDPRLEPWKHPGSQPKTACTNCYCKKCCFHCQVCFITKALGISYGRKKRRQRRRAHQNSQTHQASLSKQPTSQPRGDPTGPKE
UniProt Q9NPF5: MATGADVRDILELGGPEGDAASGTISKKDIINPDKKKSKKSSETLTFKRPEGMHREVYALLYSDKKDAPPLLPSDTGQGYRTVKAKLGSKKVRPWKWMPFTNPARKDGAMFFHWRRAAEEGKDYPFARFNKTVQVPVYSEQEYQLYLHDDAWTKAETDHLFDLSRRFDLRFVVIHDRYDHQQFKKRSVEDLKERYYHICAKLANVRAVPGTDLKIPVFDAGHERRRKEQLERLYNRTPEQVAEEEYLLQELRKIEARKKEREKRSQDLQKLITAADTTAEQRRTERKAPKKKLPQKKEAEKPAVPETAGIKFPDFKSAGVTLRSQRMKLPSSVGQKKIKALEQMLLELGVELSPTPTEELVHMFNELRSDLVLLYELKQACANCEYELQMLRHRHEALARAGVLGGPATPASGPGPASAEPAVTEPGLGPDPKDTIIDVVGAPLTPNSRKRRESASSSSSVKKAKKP
UniProt Q92993: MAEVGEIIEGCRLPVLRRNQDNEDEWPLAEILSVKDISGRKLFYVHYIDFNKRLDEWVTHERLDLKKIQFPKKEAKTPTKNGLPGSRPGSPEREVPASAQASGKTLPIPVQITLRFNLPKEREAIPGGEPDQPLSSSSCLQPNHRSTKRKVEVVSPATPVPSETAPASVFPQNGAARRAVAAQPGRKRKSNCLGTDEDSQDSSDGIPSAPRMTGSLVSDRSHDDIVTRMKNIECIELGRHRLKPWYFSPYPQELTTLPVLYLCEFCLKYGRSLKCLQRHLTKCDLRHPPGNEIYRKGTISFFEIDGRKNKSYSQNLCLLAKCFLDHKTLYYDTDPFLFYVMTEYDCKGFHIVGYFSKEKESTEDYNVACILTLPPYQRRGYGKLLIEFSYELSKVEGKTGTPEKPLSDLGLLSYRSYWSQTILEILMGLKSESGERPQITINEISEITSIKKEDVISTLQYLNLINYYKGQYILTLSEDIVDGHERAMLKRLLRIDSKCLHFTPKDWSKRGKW

Results are given in words; binding and its absence hold for the method and conditions named. For some of these results: Binding seen in cells or lysates may run through a third protein. Some results given as binding are weak or reduced against the parent protein; the word gives no strength.

Assay [1] deals with EP400-Flag (human) (UniProt Q96L91). The assay can be described thus: co-IP; Flag-tagged EP400 co-expressed with DMAP1 truncations in 293T cells.
Assay [2] addresses HIV-1 Tat(86)-Flag, wild type (HIV-1) (UniProt P04608). Put plainly: co-IP; Flag-tagged Tat (WT, deletion or point mutants) co-expressed with DMAP1 (full length or truncations) in 293T cells; DMAP1 band normalised to Tat.
The target is the same in assay [3]. The assay can be described thus: co-IP; Tat immunoprecipitated from HEK293T lysate, co-purified cellular proteins detected by Western blot; IP buffer 50 mM Tris-HCl pH7.5, 1 mM EDTA, 150 mM KCl, 1% Triton-X 100, 4°C; also in cells with stable knock-down of EP400, DMAP1, KAT5 or other p400 subunits. A general note: A western blot detects proteins with antibodies after separation by electrophoresis.

Assay [4] addresses His-tagged Tat, recombinant purified (HIV-1) (UniProt P04608). The assay can be described thus: pull-down; 1 µg purified His-Tat mixed with 10 µg GST-DMAP1 in 25 mM Tris-HCl pH 7.2, 150 mM NaCl, 1% Triton-X 100, 0.1% SDS, 4°C 1 h; captured with anti-His tag antibody on Dynabeads Protein G; Western blot; both purified.

Regarding “DMAP1 1-211 (from UniProt Q9NPF5 1-211) (domain or fragment)”, the binding entry in assay [1] is “no binding”.

In the case of “DMAP1 1-305 (from UniProt Q9NPF5 1-305) (domain or fragment)”, the binding result in assay [1] was “no binding”.

For “DMAP1 1-404 (from UniProt Q9NPF5 1-404) (domain or fragment)”, the binding entry in assay [1] and in assay [2] was “binds” in each case.

Turning to “DMAP1 67-467 (from UniProt Q9NPF5 67-467) (domain or fragment)”, the binding entry in assay [1] and in assay [2] was “binds” throughout.

With “DMAP1 121-467 (from UniProt Q9NPF5 121-467) (domain or fragment)”, in assay [2], the binding entry was “no binding”.

For the substance “DMAP1 212-467 (from UniProt Q9NPF5 212-467) (domain or fragment)”, the binding entry in assay [2] is on record as “no binding”.

“DMAP1 full length (WT, 1-467), overexpressed (from UniProt Q9NPF5 1-467)”: the binding result in assay [1] and in assay [2] was “binds” in each case.

Turning to “DMAP1, endogenous (from UniProt Q9NPF5 1-467)”, the binding result in assay [3] was “binds”.

On to “GST-tagged DMAP1, recombinant purified (from UniProt Q9NPF5 1-467)”, for which the binding entry in assay [4] was “binds”.

As for KAT5 (from UniProt Q92993 1-513), the binding result in assay [3] is given as “binds”.
